For one experiment, the target named is T1, free latent myostatin (Mus musculus, UniProt O08689).
T1 construct: from tissue; host or cells: mouse serum
Description: serum free latent myostatin assay in mice. In kind it is in vivo. The note with it: 2 mg/kg and 20 mg/kg doses; FIG. 17. The text has this:
Serum clearance: As used herein, the term “serum clearance” or “clearance” refers to a relative pharmacokinetic/pharmacodynamic behavior pertaining to changes in serum concentrations (e.g., circulating levels) of an analyte (e.g., target protein or protein complex) over time. When the analyte being measured accumulates in the serum, it is said to have slow clearance. By contrast, when the analyte being measured is removed (“cleared”) rapidly from the serum, it is said to have fast clearance. Serum clearance in vivo may occur via multiple mechanisms, including, for example, targeted degradation, Fc-mediated internalization, etc. For example, serum clearance of circulating myostatin may be measured with an assay for determining binding of an antibody to free myostatin in serum (circulating myostatin that is not bound by the antibody). Such an assay may involve immobilizing a biotinylated capture antibody known to bind pro and latent myostatin, before adding a sample comprising myostatin to test the ability of the antibody to bind to the free myostatin and adding a detection antibody with a detectable marker.
In another embodiment, a pharmacodynamic assay, can be performed by measuring the binding of the antibodies to serum free latent myostatin (i.e., circulating latent myostatin that is not bound by the antibody). […]

A short description of experiment [1]: semaglutide plus Ab109 or Ab141 in diet-induced obesity mice (Example 5). Particulars: with semaglutide 0.040 mg/kg daily; FIGS. 13A-B. In kind it is in vivo, mouse. The procedure: Male C57/BL6 mice were a high-fat diet containing 60% fat then switched to a diet containing 45% fat. […] Body weight and body composition determined by qNMR were recorded at days 7, 14, and 21 after dosing. Gastrocnemius weight, inguinal, and perigonadal fat pad weights were recorded at the end of the study. Liver and terminal blood were collected to measure the levels of glucose and insulin.

The test system of a further experiment is leptin. Description: circulating leptin, U-PLEX Metabolic Hormones Combo 1 (Example 6). Format: in vivo, mouse. Particulars: for Leptin Day 64 (circulating leptin): 60%/45% high fat diet. The procedure:
Circulating leptin was measured using the U-PLEX Metabolic Hormones Combo 1 (mouse) according to manufacturer's instructions (Meso Scale Diagnostics, #K15306K-2). As expected, circulating leptin was higher in animals fed the high fat diet than animals fed a standard chow.

The nature of experiment [2]: Ab109 with 0.01 or 0.04 mg/kg semaglutide in DIO mice (Example 9). Format: in vivo, mouse. The procedure:
Male C57/BL6 male mice (n=8/group) were placed on a 60% high fat diet at […] of age and maintained on the 60% high fat diet until 21 weeks of age (Groups 1-12), at which time the study began (day −7). On day −7, animals in groups 1-12 were switched to a 45% high fat diet and maintained on the 45% high fat diet until the animals were terminated. […] Body weight was measured three times per week and qNMR measurements of lean mass and fat mass were obtained pre-dose on day 0 and on days 7, 14 and 21. Fasting glucose was measured on day 18 after a 4 hour fast.
Animals in groups 3-12 were dosed with semaglutide daily for 3 weeks, then terminated. Animals in groups 1, 3, and 4 were treated with IgG control antibody, and those in groups 2, 5-12 were treated with myostatin activation inhibiting antibody treatment, for 3 weeks.
At termination, left gastrocnemius and quadriceps muscles were removed and frozen; the liver was weighed, one lobe was frozen; epididymal (perigonadal) adipose tissue was removed and weighed; inguinal (subcutaneous) adipose tissue was removed and weighed; and a terminal serum bleed was obtained.

“Also recorded” adds a separate entry of the source.

B1: Ab109: anti-pro/latent myostatin antibody; CDR sequences in Table 2d (antibody)
heavy: EVQLVESGGGLVQPGGSLRLSCAASGFTFSSYGMSWVRQAPGKGLELVASFTGSGGTYYPDSVKGRFTISRDNAKNSLYLQMNSLRAEDTAVYYCARDLLIRFLEWSHYYGMDVWGQGTTVTVSSASTKGPSVFPLAPCSRSTSESTAALGCLVKDYFPEPVTVSWNSGALTSGVHTFPAVLQSSGLYSLSSVVTVPSSSLGTKTYTCNVDHKPSNTKVDKRV[human IgG4 Fc with S228P (EU numbers) left out]
light: DIVMTQSPLSLPVTPGEPASISCRSSQSLLHSSGHNFLHWYLQKPGQSPQLLIYEVSNRVSGVPDRFSGSGSGTDFTLKISRVEAEDVGVYYCMQQTQYPPTFGGGTKVEIKRTVAAPSVFIFPPSDEQLKSGTASVVCLLNNFYPREAKVQWKVDNALQSGNSQESVTEQDSKDSTYSLSSTLTLSKADYEKHKVYACEVTHQGLSSPVTKSFNRGEC
As to B1, in the experiment with free latent myostatin, the “free latent myostatin levels in the serum” value is “reduce free latent myostatin levels in the serum”. In experiment [1], the “fat mass loss (subcutaneous and epididymal adipose tissue weight)” value is “increased fat mass loss as compared to Ab109 or Ab141 alone”. For the same molecule, the results for the “Leptin Day 64 (circulating leptin)” value in the experiment on leptin (semaglutide 0.04 mg/kg day 7-35 (regain arm)) and in the experiment with leptin (semaglutide 0.04 mg/kg day 7-63) were 21.71 ng/mL and 12.4 ng/mL, respectively. Besides, in the experiment on leptin (FIG. 14K), the circulating leptin entry was “decreased circulating leptin in the semaglutide withdrawal group”. In addition, the body weight result in experiment [2] (45% high fat diet, semaglutide 0.01 or 0.04 mg/kg daily, 3 weeks, FIGS. 18A-B) was “maintained steady body weight”. Also, the “increase in lean mass” value in experiment [2] (Ab109 added to 0.01 mg/kg semaglutide, FIG. 20B) is reported as 4% to 6%; in experiment [2] (Ab109 treatment alone, FIG. 20C), 8.3%. Besides, the lean mass change result in experiment [2] (Ab109 added to 0.04 mg/kg semaglutide, FIG. 20A) is “close-to-neutral lean mass change at 3 mg/kg and 10 mg/kg of Ab109”. In addition, the lean mass result in experiment [2] (Ab109 in combination with semaglutide, FIG. 20C) was “preserved lean mass at doses of 1, 3, and 10 mg/kg Ab109”. Further, the quadriceps muscle loss result in experiment [2] (Ab109 in combination with semaglutide, FIG. 21A) was “prevented this muscle loss”. The gastrocnemius muscle loss entry in experiment [2] (Ab109 in combination with semaglutide, FIG. 21B) is “prevented this muscle loss”. Further, the “perigonadal fat pad loss” value in experiment [2] (Ab109 in combination with semaglutide, FIG. 22A) was “only improved fat pad loss at select doses”. Besides, the “inguinal fat pad loss” value in experiment [2] (Ab109 in combination with semaglutide, FIG. 22B) is listed as “improved inguinal fat pad loss”. Besides, in experiment [2] (Ab109 monotherapy without semaglutide, FIG. 19A), the fat mass gain was determined as 7%. For the same molecule, the fat mass loss result was “improved fat mass loss compared to those treated with 0.01 mg/kg semaglutide and IgG control” in experiment [2] (semaglutide 0.01 mg/kg with Ab109, FIG. 19B); “improved fat mass loss compared to IgG control with semaglutide; also recorded: improved fat mass loss in a dose-dependent manner” in experiment [2] (semaglutide 0.04 mg/kg alone or with Ab109, FIG. 19A, 19C).
